Experimental data published in PubChem BioAssay AID894 (National Center for Advancing Translational Sciences (NCATS), 2007).
Hit rate of the full screen: of about 150,000 compounds, about 6,500 (4.3%) were called active. This list was built around the results that the source calls inconclusive (neither active nor inactive); the mix of calls is not that of the screen. The call rests on the fitted dose curve; in most records, active means well fitted inhibition curve with a large enough effect (not every such curve was filed as active); inconclusive means small, poorly fitted or top-dose-only effect, or another doubt; inactive means no such curve, though single readings can be large or run the other way. Potencies of inconclusive entries are left out as doubtful fits.

target: 15-hydroxyprostaglandin dehydrogenase [NAD(+)] (Homo sapiens) (UniProt P15428); experiment: qHTS Assay for Inhibitors of HPGD (15-Hydroxyprostaglandin Dehydrogenase); settings: purified HPGD, NADH fluorescence kinetic, PGE2 substrate; activity change, negative = inhibition: stronger effect = lower value
How it was run: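 20 nM HPGD preincubated 15 min at room temperature with compound in 50 mM Tris-HCl pH 8, 0.01% Tween 20. Started with 1 mM NAD+ and 30 uM prostaglandin E2; NADH fluorescence (360/450 nm) read 5 times over 30-s intervals, last minus first.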
On the % scale 0 is the no-effect control and ±100 the full control effect; potency means the concentration at half of the fitted maximal effect; tags describe the fitted curve by direction and shape.

Sequence of UniProt P15428 (P15428 whole entry, looked up): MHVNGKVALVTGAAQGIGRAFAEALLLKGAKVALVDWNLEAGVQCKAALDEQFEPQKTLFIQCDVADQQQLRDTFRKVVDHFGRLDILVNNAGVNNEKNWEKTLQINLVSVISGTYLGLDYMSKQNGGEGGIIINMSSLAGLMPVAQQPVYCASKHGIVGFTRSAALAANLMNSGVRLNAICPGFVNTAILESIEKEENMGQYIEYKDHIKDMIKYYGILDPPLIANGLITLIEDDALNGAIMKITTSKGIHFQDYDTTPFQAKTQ

Structure (SMILES)	Potency	activity change, negative = inhibition
Cc1cccc2cc(CN(Cc3nnnn3Cc3ccco3)C3CCCC3)c3nnnn3c12	inconclusive [inhibitor, partial curve, poor fit]	–
C=CC(C1=CC(=O)C=CC1=O)c1ccc(O)cc1 (stereo not drawn)	inconclusive [inhibitor, single point]	–
CCN(CC)S(=O)(=O)c1ccc(C(=O)N2CCCCC2)cc1	active: 3.98 µM	–
O=C(NCCc1ccccc1)C1CCC(CNc2c(N3CCCCC3)c(=O)c2=O)CC1 (stereo not drawn)	active: 6.31 µM	–
CCN(CC)C(=O)c1ccc(COc2ccccc2Br)o1	inconclusive [inhibitor, single point]	–
CC(=C/c1ccccc1)/C=N/n1c(-c2ccco2)n[nH]c1=S	active: 5.01 µM	–
CCc1cc(C(=O)Cc2nc3ccccc3[nH]2)c(O)cc1O	inconclusive [inhibitor, single point]	–
COc1ccc(C(=O)N2CCC[C@@]3(CCN(Cc4ccccc4OC)C3)C2)cc1	–	inactive: -0.0049%
Clc1ccc(OCc2nn3c(-c4ccco4)nnc3s2)c(Cl)c1	active: 3.16 µM	–
COc1cccc(NS(=O)(=O)c2ccc3[nH]cc(C(=O)NCCCOC(C)C)c(=O)c3c2)c1	inconclusive [inhibitor, partial curve]	–
c1ccc(N/N=C(\Cc2nc3ccccc3[nH]2)c2ccccc2)cc1	inconclusive [inhibitor, single point]	–
CCCC(C)NC(=O)c1ccc(OCc2ccc(Cl)cc2)c(OC)c1 (stereo not drawn)	–	inactive: -4.39%
CN(C)C(=O)c1ccc(-c2nc(NCc3cccnc3)c3ccccc3n2)cc1	active: 15.8 µM	–
N#CC1=C(N)SC2(CCCCC2)SC1c1ccccc1 (stereo not drawn)	inconclusive [inhibitor, single point]	–
COc1ccc(OC)c(/C=N/NC(=O)CN2CCSCC2)c1	inconclusive [inhibitor, partial curve]	–
c1ccc2c(c1)Cc1cc3cc4c(cc3nc1-2)OCO4	inconclusive [inhibitor, partial curve]	–
O=C(C1=C(O)C(=O)N(c2ncccn2)C1c1ccc(Cl)c(Cl)c1)c1ccco1 (stereo not drawn)	inconclusive [inhibitor, partial curve]	–
CC(C)CCNC(=O)C(c1ccco1)N(Cc1ccc(F)cc1)C(=O)c1snc(C(N)=O)c1N (stereo not drawn)	inconclusive [inhibitor, partial curve]	–
c1ccc(COc2nsnc2N2CCOCC2)cc1	–	inactive: -17.1%
COc1ccc2nc3c(cc2c1)c(NC(=O)c1cccs1)nn3CC(C)C	inconclusive [inhibitor, partial curve]	–
O=c1cc(CN2CCN(S(=O)(=O)c3ccc4c(c3)OCCO4)CC2)c2ccc(O)cc2o1	inconclusive [inhibitor, partial curve]	–
c1ccc(-c2cn3c(n2)CCc2ccc4cccnc4c2-3)cc1	inconclusive [inhibitor, single point]	–
O=C(NCc1ccc2c(c1)OCO2)c1ccc(N2CCCCCC2)c([N+](=O)[O-])c1	active: 14.1 µM	–
O=C(CSc1ccc(Cl)cc1)NCC1CCCO1 (stereo not drawn)	inconclusive [inhibitor, single point]	–
Cc1cc(=O)[nH]c2c(C)c(N)ccc12	inconclusive [inhibitor, partial curve]	–

Structure (SMILES)	Potency	activity change, negative = inhibition
CCOC(=O)c1cnn2c(C(F)(F)F)cc(-c3ccco3)nc12	inconclusive [inhibitor, partial curve]	–
CC1CCCC(=C\c2ccccc2)/C1=N/O (stereo not drawn)	active: 3.16 µM	–
O=C(CCNS(=O)(=O)c1cccc2nonc12)N1CCN(c2cccc(Cl)c2)CC1	–	inactive: -9.91%
O=c1oc2cc(O)ccc2c2c1CCCC2	inconclusive [inhibitor, partial curve]	–
CCS(=O)(=O)Nc1cccc(-c2cc(-c3ccccc3)c3cc(C)ccc3n2)c1	inconclusive [inhibitor, partial curve]	–
Oc1c(I)cc(I)c2cccnc12	inconclusive [inhibitor, single point]	–
Nc1nc(N)nc(-c2ccccc2)n1	–	inactive: -10.8%
CCCCCC(=O)Nc1nc(C)c(-c2csc(Nc3cc(Cl)ccc3OC)n2)s1	inconclusive [inhibitor, partial curve]	–
COc1ccc2cc(C(=O)Nc3ccc(O)cc3)sc(=O)c2c1OC	active: 25.1 µM	–
O=C(CSc1nc2ccccc2s1)NC1CCCc2ccccc21 (stereo not drawn)	active: 11.2 µM	–
Cc1c(C(=O)Nc2cccc3cccnc23)oc2ccccc12	inconclusive [inhibitor, partial curve]	–
CCC(C)(C)n1nnnc1CN(Cc1cc2cc(OC)ccc2[nH]c1=O)C1CCCC1	inconclusive [inhibitor, single point]	–
O=C(CSc1nnc(CNC(=O)c2cccs2)o1)c1ccccc1	–	inactive: -22.8%
Cc1ccc(-c2c3c([nH]c(=S)c2C#N)CCCC3)o1	active: 8.91 µM	–
OC[C@@H]1O[C@@H](n2cnc3c(SCc4ccccc4)ncnc32)[C@@H](O)[C@H]1O	–	inactive: -3.63%
O=C(COc1ccc(Br)cc1)OCc1nnc(-c2ccccc2)o1	active: 28.2 µM	–
CCOC(=O)Nc1ccc(Oc2ccccc2)cc1	inconclusive [inhibitor, single point]	–
O=C(CSc1ccc2ccccc2n1)c1ccc2c(c1)OCO2	active: 8.91 µM	–
Cc1ccc(-c2ccc(/C=N/N3C(=O)C4C5C=CC(C6CC56)C4C3=O)o2)c([N+](=O)[O-])c1 (stereo not drawn)	active: 12.6 µM	–
NNC(=O)c1cc(Cl)ccc1Cl	–	inactive: -1.52%
CCCCc1c(O)c2ccccc2[nH]c1=O	inconclusive [inhibitor, partial curve]	–
C#C[C@]1(O)CC[C@@H]2[C@H]3CCC4=CCCC[C@@H]4[C@@H]3CC[C@@]21C	–	inactive: -9.18%
Cc1noc(NS(=O)(=O)c2ccc(N/C=C/C(=O)c3ccccc3)cc2)c1C	inconclusive [inhibitor, partial curve]	–
Cc1ccccc1OCCCC(=O)Nc1ccc2c(c1)OCO2	–	inactive: -20.8%
CCn1cc[n+](C)c1P(c1ccccc1)c1ccccc1	active: 25.1 µM	–

Structure (SMILES)	Potency	activity change, negative = inhibition
O=C(O)c1ccccc1NCc1ccncc1	inconclusive [inhibitor, partial curve]	–
COCC(=O)N1CCC2(CCCN(c3ccc(-c4ccccc4)cc3)C2)CC1	inconclusive [inhibitor, partial curve]	–
Cc1ccccc1NC(=S)NCc1ccc2[nH]c3c(c2c1)CCCC3	active: 20 µM	–
COc1ccccc1-c1cc(C(F)(F)F)nc(S(=O)(=O)CCCC(=O)N2CCCCC2C)n1 (stereo not drawn)	inconclusive [inhibitor, partial curve]	–
O=C(CSc1nnc(Cc2ccccc2)n1-c1cccc(Cl)c1)N1CCOCC1	–	inactive: -1.08%
CCOc1ncccc1C(=O)NCc1cccc(OC)c1	inconclusive [inhibitor, partial curve]	–
COc1cc(-c2nc3ccccc3c(=O)n2N)cc(OC)c1OC	–	inactive: -25.4%
O=C(NC1=NCCS1)c1ccc(-c2ccc(Cl)cc2)o1	inconclusive [inhibitor, partial curve]	–
Cc1nnc(SCCCN2C(=O)c3ccccc3C2=O)o1	–	inactive: -11%
COc1cc(C(=O)OCc2ccc(C)cc2)cc(NC(=O)c2cccs2)c1OC	inconclusive [inhibitor, partial curve]	–
CCC(C)(C)NC(=O)/C=C/c1cnc2ccccc2n1	–	inactive: -19.6%
Cc1ccc(N2C(=O)[C@@H]3[C@H](C2=O)C2CCCN2[C@@H]3C(=O)c2ccccc2)cc1 (stereo partly drawn)	inconclusive [inhibitor, partial curve]	–
COc1cccc(CNc2cnc3ccccc3c2)c1O	inconclusive [inhibitor, single point]	–
CN(C)S(=O)(=O)c1ccc(C(=O)Nc2nnc(SCc3cccc4ccccc34)s2)cc1	inconclusive [inhibitor, partial curve]	–
c1ccc2[nH]c(SN3CCOCC3)nc2c1	active: 11.2 µM	–
CC1(C)CC(=O)c2cc(OCC(=O)NCc3cccnc3)ccc2O1	inconclusive [inhibitor, partial curve]	–
CC(=O)c1cc(C(=O)Nc2ccccc2C(=O)O)oc1C	inconclusive [inhibitor, partial curve]	–
C=C1CSc2nc3ccccc3c(=O)n21	inconclusive [inhibitor, partial curve]	–
Nc1c(-c2ccccc2Cl)cnn1-c1cccc([N+](=O)[O-])c1	active: 14.1 µM	–
N#CC(C#N)=C(N)/C(C#N)=C/c1ccc(O)cc1	inconclusive [inhibitor, partial curve]	–
Cc1ccc(-n2c(-c3ccco3)nc3nc4ccccc4nc32)cc1F	inconclusive [inhibitor, full curve, poor fit]	–
CCNC(=O)/C(C#N)=C/c1c(N2CCOCC2)nc2ccccn2c1=O	inconclusive [inhibitor, partial curve]	–
Cc1ccc2nc(-c3ccc(NC(=O)c4ccc(N)cc4)c(S(=O)(=O)O)c3)sc2c1	inconclusive [inhibitor, partial curve]	–
